# Measurements from the supplement of paper PMC3334620.
# Whole data set: some 33,000 sequences, median “E-score (-0.5 to 0.5)” near -0.016, cut for the highest 2% near 0.32. The list shows a part of the results.
# Target: T1, Stp1 (UniProt B3LFK1)
# T1 sequence: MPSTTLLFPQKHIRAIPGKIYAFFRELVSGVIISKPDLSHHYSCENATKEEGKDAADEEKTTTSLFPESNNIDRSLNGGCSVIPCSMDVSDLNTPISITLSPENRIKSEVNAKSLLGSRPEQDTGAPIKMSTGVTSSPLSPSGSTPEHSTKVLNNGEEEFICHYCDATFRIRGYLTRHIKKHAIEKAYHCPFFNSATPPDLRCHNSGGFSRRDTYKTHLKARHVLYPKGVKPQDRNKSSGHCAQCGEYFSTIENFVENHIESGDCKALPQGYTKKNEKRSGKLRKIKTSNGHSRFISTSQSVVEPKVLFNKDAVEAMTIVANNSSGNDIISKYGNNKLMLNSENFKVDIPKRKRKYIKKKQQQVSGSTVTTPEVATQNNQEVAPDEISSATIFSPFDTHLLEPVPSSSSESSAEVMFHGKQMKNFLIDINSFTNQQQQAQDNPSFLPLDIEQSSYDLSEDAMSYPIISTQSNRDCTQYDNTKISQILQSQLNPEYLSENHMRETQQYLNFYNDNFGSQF
# Assay: PBM E-score (8-mer binding enrichment) (E-score (-0.5 to 0.5)); higher = stronger / more preferred TF binding; most listed sequences are background and not binding sites
# Conditions: protein concentration: 200 nM; construct: GST-full length
# Procedure, shortened: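 For each ungapped eight-base word taken together with its reverse complement, the Universal PBM Analysis Suite assigned an E-score. Binding data came from GST-tagged yeast transcription factors, applied at about 100-200 nM, on universal all-10-mer Agilent arrays made double-stranded by primer extension. Fluorescent anti-GST marked bound protein, and scans were normalised with masliner.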
row,Sequence,PBM E-score
1,AAAAGTCT,-0.166
2,CAAAATAG,-0.17
3,AGCGACAG,-0.153
4,AGCATGGA,-0.264
5,CCGAGTAC,-0.0745
6,CCTATAAC,-0.262
7,GTACAATA,0.255
8,TACGGCGA,0.473
9,AGAGCATC,-0.135
10,GGCGGCGA,0.276
11,AGTCAACA,-0.0168
12,CAGGGCAA,0.0617
13,ATATATCG,0.261
14,AAGTCGTA,-0.0387
15,CAGACCTC,-0.0325
16,ACTCCCTG,-0.182
17,GGGGGCAA,-0.197
18,ACAACAAT,0.0375
19,ATGCAGTC,-0.199
20,GATCTCCC,-0.204
21,CTAACAGA,0.0905
22,GGCGCTCA,0.281
23,CACCCGAG,-0.189
24,ACTTGGCT,-0.249
25,AGCTATTC,-0.193

row,Sequence,PBM E-score
1,GGTGAAAA,0.201
2,CGCAGAGA,-0.0411
3,AATAAATA,0.35
4,AGCGACTC,-0.263
5,GTGGTGTA,0.0559
6,GCTAGTCA,-0.287
7,AGGGCACC,0.0197
8,CCCAAGAG,0.00717
9,AGAAGCCG,0.221
10,AGCTCCTG,-0.105
11,AATAAAGG,0.00104
12,TGAGTTAA,0.0465
13,ACGGGACA,-0.072
14,CAGATTTA,0.198
15,AAGGCAAC,0.274
16,CTATTCAG,-0.0709
17,AAGGTCGC,-0.106
18,ACAGATCT,-0.0993
19,ACCGCCTC,-0.0359
20,AAAGATAC,0.0737
21,AGAGGGGC,-0.145
22,AATCACCC,-0.109
23,GCTGTAAC,-0.11
24,GCTTCCAC,-0.0772
25,AGTTGGCC,-0.137

row,Sequence,PBM E-score
1,ATGCCAGA,0.128
2,CGGGCGCC,0.269
3,GTGGTCCA,-0.0379
4,GTGCATAA,0.183
5,ACCATGAA,0.00296
6,ACCAAACT,-0.0133
7,ATATATCA,0.0668
8,AATTGAGG,-0.0437
9,AAGATCCT,-0.0555
10,GCCCAAGA,-0.117
11,CAAATAAG,0.0433
12,AGTAACTA,0.0847
13,CGTTATAC,-0.144
14,CCTCGGCC,-0.0149
15,ACACCCAC,-0.269
16,TAAGGGAA,-0.0578
17,CATCCGGC,-0.133
18,TTAAAGAA,0.109
19,ATTAGATG,0.201
20,CATTCAAC,0.103
21,ACTTCAAC,0.0197
22,AAAAACTA,0.142
23,GAGACACA,-0.0919
24,ATACTCTA,0.141
25,AACCCGTC,-0.111

row,Sequence,PBM E-score
1,GCAGTAAC,-0.167
2,GTCGCCGA,0.0933
3,CAGTAATG,0.0578
4,AGAACCGC,0.19
5,AGACACTC,-0.205
6,CTTAGTCC,-0.023
7,TCACTAGA,0.055
8,CGTGTGGA,0.016
9,TACCGCTA,-0.171
10,TAGCCGAA,0.00682
11,ATGAGCCA,-0.0457
12,CCCCACGC,-0.244
13,ATGATATC,-0.0953
14,CGCCGCTC,0.434
15,AGGATTGC,-0.169
16,AAATCCCG,0.0278
17,CAGACGGG,-0.242
18,GACAAATA,0.176
19,AGGACTCG,-0.247
20,CAGGGATC,-0.292
21,ACCCGCAC,0.129
22,TGATTGCA,0.153
23,ACACAATC,-0.0336
24,CGAGAATC,0.0685
25,ATCGACCA,-0.264

row,Sequence,PBM E-score
1,CGTCTAGC,0.00596
2,AATAAGAC,-0.112
3,AAGCCCGA,-0.0871
4,GGATTAAC,0.0943
5,CCCGCCTA,-0.0356
6,CTGGACCA,-0.0691
7,AAGAGATG,-0.145
8,AAGTTCGG,-0.0699
9,AAGGATGA,-0.0513
10,CATGCACG,0.133
11,CACTATTC,0.0647
12,GCTACAAA,-0.0267
13,ATGCAACC,0.0262
14,ACGTTGAA,-0.0226
15,TGTCAGAA,-0.0187
16,AGGTAGGG,-0.261
17,AAACATCA,-0.00388
18,AGACGTTA,0.00873
19,GACCTTGA,-0.162
20,AGAATTCC,0.0919
21,ATCGGCTC,0.136
22,ACTTCGAG,0.101
23,GGTGCCAA,0.057
24,ACACTTGG,-0.00274
25,AATTCGAA,0.0624

row,Sequence,PBM E-score
1,GATAGTTA,-0.112
2,CTGGTCGA,-0.275
3,AGGAGCAA,-0.247
4,CTAGCTCA,-0.138
5,CATGGATC,-0.11
6,AGTATGCC,0.128
7,GCCCGATA,-0.107
8,CCGCAAAG,0.181
9,CACGTGAG,0.231
10,ACGTCTCA,0.0523
11,GCACATAC,0.0469
12,ACGGTTTC,-0.00454
13,ACCTAGCA,-0.213
14,CCAAAGGC,0.0337
15,AAGATATG,0.213
16,GAAGGCAA,0.218
17,TCCGAGCA,0.0474
18,AATCCAGG,-0.0627
19,AATGCGAT,-0.0204
20,ACAGACGA,-0.0204
21,CGTAGTAA,0.041
22,AGGGCCAA,-0.203
23,GAGTGGAA,-0.00653
24,CCGTCACG,-0.0442
25,AGCCAATC,-0.177

row,Sequence,PBM E-score
1,GCTATGAC,-0.135
2,ACGTCAGC,-0.0506
3,CCACTCTC,-0.0818
4,AGGCTCGA,0.087
5,CCGACCAA,-0.0204
6,GGGCAGCA,-0.122
7,ACAGTCGC,-0.109
8,AGCCCATC,-0.0701
9,ACGACACT,-0.109
10,ACGTCGTA,-0.167
11,ATTCTAGA,0.133
12,ACGAGTGG,-0.143
13,AGTGATTG,-0.018
14,CCGGTGGA,-0.22
15,CCACGGCG,0.478
16,TGGCCCAA,0.0351
17,GCAAGACA,0.124
18,GTTAATAA,0.151
19,CTGTCGAC,-0.13
20,CCAGGTCG,-0.263
21,GAGGAAAA,-0.0008
22,CGATCATA,0.00595
